Measurements published in PubChem BioAssay AID624171 (National Center for Advancing Translational Sciences (NCATS), 2012).
The campaign covered roughly 410,000 compounds. About 1,200 (0.29%) were called active. The shares of active, inactive and inconclusive entries below differ from those in the screen. Calls come from the whole dose curve; as a rule, active = well fitted activation curve with a large enough effect; inconclusive = small, poorly fitted or top-dose-only effect; inactive = flat fitted curve, though single readings scatter. A potency beside an inconclusive call is a rough fit, not a confirmed value.

Assay: qHTS of Nrf2 Activators; note: nearly all actives have a fitted effect of over 65% in size; for activation: % of control where 0% means no effect
Conditions: AREc32 ARE-luciferase reporter (MCF7-derived line), luminescence, 24 h; activation: at 46.1 µM (top of the series)
Summary of the method: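 AREc32 cells carrying an ARE-driven firefly luciferase reporter were seeded at 1000 cells/well in OPTI-MEM with 5% FBS, then exposed to compound for 24 hr at 37 deg C. Luminescence was read with Steady-Glo after 30 min at RT.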
Potency is the fitted concentration of half-maximal effect; tags give direction and shape of the fitted curve.

Which Potency does the source give for `CCC1CCCCN1S(=O)(=O)c1ccc2[nH]c(=O)ccc2c1` (stereo not given) here?
Its Potency is “inactive”.

With `O=C(CSc1c2c(nc3ccc(Cl)cc13)CCCC2)NCc1ccco1` as the compound, how does the Potency read?
The Potency was active: 11.2 µM.

With `COc1cccc(N/C=C/c2onc(C)c2[N+](=O)[O-])c1` as the compound, how does the Potency read?
The Potency was “inactive”.

Which Potency does the source give for `O=C(Nc1ncnc2sc3c(c12)CCC3)c1ccco1` here?
Its Potency is active: 0.794 µM.

With `O=[N+]([O-])c1cccc(/C=N/Nc2cc(N3CCOCC3)ncn2)c1` as the compound, how does the Potency read?
The Potency was inconclusive: 8.91 µM [activator, partial curve, poor fit].

With `COc1ccc(N(CCCN2C(=O)c3cccc4cccc(c34)C2=O)C(=O)c2cccs2)cc1` as the compound, how does the Potency read?
Its Potency is inconclusive: 1.58 µM [activator, full curve, poor fit].

Which Potency does the source give for `O=C(/C(C=Nc1cc2c(oc1=O)CCCC2=O)=C(\O)c1ccccc1)c1ccccc1` here?
The Potency was inconclusive: 17.8 µM [activator, single point].

Which Potency does the source give for `COc1ccccc1-c1nnc(NC(=O)CCS(=O)(=O)c2ccc(F)cc2)o1` here?
The Potency was active: 22.4 µM.

With `CCCCC(=O)NC(c1ccc([N+](=O)[O-])cc1)c1c(O)ccc2ccccc12` (stereo not given) as the compound, how does the Potency read?
Its Potency is “inactive”.

For `O=C(NC(=S)NCCc1ccccc1)c1cccc(Cl)c1`, which Potency is on record?
Its Potency is inconclusive: 3.16 µM [activator, single point].

For `CC(OC(=O)c1ccco1)C(=O)Nc1ccc(Cl)cn1` (stereo not given), which Potency is on record?
The Potency was inconclusive: 17.8 µM [activator, single point].

Which Potency does the source give for `COc1cc(C2C3=C(CC(C)(C)CC3=O)OC(N)=C2[N+](=O)[O-])ccc1O` (stereo not given) here?
The Potency was inconclusive: 31.6 µM [activator, single point].

Which Potency does the source give for `OCc1cn(-c2ccccc2)nc1-c1ccco1` here?
The Potency was inconclusive: 12.6 µM [activator, partial curve, poor fit].

For `O=C(Nc1ccc(Br)c(Cl)c1)c1ccco1`, which Potency is on record?
Its Potency is inconclusive: 3.55 µM [activator, partial curve, poor fit].

For `Cc1noc(C)c1COc1ccccc1C(=O)NNC(=O)c1ccccc1F`, which Potency is on record?
Its Potency is active: 10 µM.

With `CCCCc1nc(N)c(C#N)c(-c2ccco2)c1CCC` as the compound, how does the Potency read?
The Potency was inconclusive: 12.6 µM [activator, partial curve, poor fit].

Which Potency does the source give for `FC(F)(F)c1cccc(N2CCN(Cc3ccoc3)CC2)c1` here?
Its Potency is “inactive”.

Which Potency does the source give for `CCC1=C(CC2NCCc3ccccc32)CC2c3cc(OC)c(OC)cc3CCN2C1` (stereo not given) here?
The Potency was “inactive”.

For `O=[N+]([O-])c1ccc(/C=C/c2ccc3cccc([N+](=O)[O-])c3n2)cc1`, which activation is on record?
The activation was inconclusive: 148% [activator].

With `Cc1ccc(S(=O)(=O)c2nc(S(=O)(=O)c3ccccc3)sc2N2CCN(CCO)CC2)cc1` as the compound, how does the Potency read?
Its Potency is inconclusive: 17.8 µM [activator, partial curve, poor fit].

With `Cc1[nH]n2c(=O)cc(-c3ccccc3Cl)nc2c1-c1ccccc1` as the compound, how does the Potency read?
The Potency was “inactive”.

For `Cc1nc(N)sc1-c1csc(Nc2ncccn2)n1`, which Potency is on record?
Its Potency is inconclusive: 25.1 µM [activator, single point].

With `COc1cccc(C2C(C(=O)c3cccs3)=C(O)C(=O)N2CCN2CCOCC2)c1` (stereo not given) as the compound, how does the Potency read?
Its Potency is “inactive”.

With `O=C1Cc2cc(S(=O)(=O)N3CCN(c4ccccc4)CC3)ccc2N1` as the compound, how does the Potency read?
Its Potency is “inactive”.

Which Potency does the source give for `CC(C)C(=O)N1CCN(c2ccc(NC(=O)c3ccc([N+](=O)[O-])o3)cc2Cl)CC1` here?
The Potency was inconclusive: 3.16 µM [activator, single point].

For `CCCCn1c(=O)[nH]c2nc3cc(N)ccc3nc2c1=O`, which Potency is on record?
The Potency was “inactive”.

With `Cc1cc(C)cc(N=Cc2[nH]c3ccc(Br)c(Cl)c3c2O)c1` as the compound, how does the Potency read?
The Potency was inconclusive: 22.4 µM [activator, single point].

With `Cc1c(NC(=O)COC(=O)c2ccc[nH]c2=O)c(=O)n(-c2ccccc2)n1C` as the compound, how does the Potency read?
Its Potency is “inactive”.

For `CN(C)c1ccc(N=Nc2ccccc2C(=O)OCC(=O)NCC2CCCCC2)cc1`, which Potency is on record?
The Potency was inconclusive: 25.1 µM [activator, single point].

With `O=C(/C=C/Nc1ccc(F)cc1Br)c1ccccc1` as the compound, how does the Potency read?
Its Potency is inconclusive: 3.55 µM [activator, partial curve, poor fit].

Which Potency does the source give for `O=C(OCC(=O)N1CCCC1)c1c(Cl)ccc(Cl)c1Cl` here?
The Potency was inconclusive: 17.8 µM [activator, partial curve, poor fit].

Which Potency does the source give for `O=C1OC(/C(=C\Nc2cc(Cl)ccc2O)[N+](=O)[O-])c2ccccc21` (stereo not given) here?
The Potency was active: 11.2 µM.

With `S=C(Nc1ccc(Cl)c(Cl)c1)N1CCN(c2ccccn2)CC1` as the compound, how does the Potency read?
The Potency was “inactive”.

Which Potency does the source give for `COc1ccccc1-c1cc(C(F)(F)F)nc(S(=O)(=O)CCCC(=O)N2CCOCC2)n1` here?
Its Potency is inconclusive: 5.62 µM [activator, single point].

For `COc1ccc(/C=C/C(=O)c2ccc3c(c2)OCCO3)cc1[N+](=O)[O-]`, which Potency is on record?
The Potency was inconclusive: 22.4 µM [activator, single point].

For `O=C(COc1ccccc1-c1ccccc1)NCc1ccco1`, which Potency is on record?
Its Potency is inconclusive: 10 µM [activator, partial curve].

With `CC(=O)c1cccc(NC(=O)/C=C/c2ccc([N+](=O)[O-])s2)c1` as the compound, how does the Potency read?
The Potency was inconclusive: 8.91 µM [activator, partial curve, poor fit].

With `COc1ccc(OC)c(C2=Nn3c(nnc3-c3ccco3)SC2)c1` as the compound, how does the Potency read?
Its Potency is inconclusive: 3.55 µM [activator, partial curve, poor fit].

For `Nc1c(C(=O)Nc2nc3ccccc3s2)sc2nc(-c3cccs3)ccc12`, which Potency is on record?
The Potency was inconclusive: 5.01 µM [activator, single point].

With `O=C(C(Cl)c1ccccc1)N1CCOCC1` (stereo not given) as the compound, how does the Potency read?
The Potency was inconclusive: 35.5 µM [activator, partial curve, poor fit].

Which Potency does the source give for `CN(C)CCN(C(=O)CCS(=O)(=O)c1ccccc1)c1nc2cc3c(cc2s1)OCO3` here?
The Potency was “inactive”.

Which Potency does the source give for `COc1ccc(/C=C/C(=O)c2ccc([N+](=O)[O-])o2)cc1` here?
Its Potency is inconclusive: 14.1 µM [activator, partial curve, poor fit].

Which Potency does the source give for `COc1ccc2c(c1)CC/C(=C/c1ccccn1)C2=O` here?
The Potency was inconclusive: 22.4 µM [activator, single point].

With `N#CC1c2ccccc2C=CN1C(=O)N(c1ccccc1)c1ccccc1` (stereo not given) as the compound, how does the Potency read?
The Potency was inconclusive: 5.62 µM [activator, single point].

For `COc1ccc([N+](=O)[O-])cc1NC(=O)c1ccco1`, which Potency is on record?
The Potency was active: 3.16 µM.
